Over roughly 81,000 sequences, “one-hybrid fitness for binding parS DNA” has its median near -0.17; the highest 2% begin near 0.51. The list shows a part of the results.
B1: Caulobacter ParB omega fusion; a variant is named by its letters at X, in order, B8GW30 (parent)
chain: MESVVVGEPGMSEGRRGLGRGLSALLGEVDAAPAQAPGEQLGGSREAPIEILQRNPDQPRRTFREEDLEDLSNSIREKGVLQPILVRPSPDTAGEYQIVAGERAWRAAQRAGLKTVPIMVRELDDLAVLEIGIIENVQRADLNVLEEALSYKVLMEKFERTQENIAQTIGKSXSHVANXMRLLXLPDEVQSYLVSGELTAXHARAIAAAADPVALAKQIIEGGLSVRETEALARKAPNLSAGKSKGGRPPRVKDTDTQALESDLSSVLGLDVSIDHRGSTGTLTITYATLEQLDDLCNRLTRGI

Variants of: B1
Experiment: one-hybrid fitness for binding parS DNA (scaled: cognate 1, non-cognate 0); higher = stronger binding
Conditions: with parS DNA site
Procedure, shortened: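 Bacterial one-hybrid selection in E. coli USO rpoZ- hisB- pyrF- with a HIS3 reporter carrying the site 19 bp from the promoter, screening Caulobacter ParB libraries with four specificity codons randomised (NNS). Cells grew 48 hours at 37°C on M9-minus-histidine plus 0.1 mM IPTG and 5 mM 3-AT. Plasmids before and after selection were Illumina-sequenced, three replicate libraries pooled, and variants under 10 reads dropped. Fitness is the log change in variant-to-wild-type read ratio, rescaled to cognate 1, non-cognate 0.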

Variant	one-hybrid fitness for binding parS DNA
NHHN	≤ 0.2
FTFT	≤ 0.2
GPKT	≤ 0.2
QCKP	≤ 0.2
RIRK	≤ 0.2
ITIC	≤ 0.2
PDVS	≤ 0.2
NVPL	≤ 0.2
ASLC	≤ 0.2
ISHR	≤ 0.2
QQML	≤ 0.2
FQKC	≤ 0.2
QPHQ	≤ 0.2
MQHR	≤ 0.2
THCF	≤ 0.2
STGS	≤ 0.2
FCMS	≤ 0.2
NCRG	≤ 0.2
EAYA	≤ 0.2
AQAR	≤ 0.2
FVNT	≤ 0.2
WPDS	≤ 0.2
RHNC	0.871
TTEY	≤ 0.2
TNTR	≤ 0.2
ILEI	≤ 0.2

Variant	one-hybrid fitness for binding parS DNA
TKQN	≤ 0.2
HMDS	≤ 0.2
LYIF	≤ 0.2
MKTS	≤ 0.2
HRAI	≤ 0.2
AVML	≤ 0.2
HNIY	≤ 0.2
DVLG	≤ 0.2
PKHN	≤ 0.2
KRSH	≤ 0.2
GDFR	≤ 0.2
PRLW	≤ 0.2
HNPT	≤ 0.2
DCSV	≤ 0.2
GAPG	≤ 0.2
MWTS	≤ 0.2
QHDA	≤ 0.2
SCKT	≤ 0.2
RFQG	0.965
PTHN	≤ 0.2
CDSS	≤ 0.2
FQGS	≤ 0.2
YGTR	≤ 0.2
RHHY	0.4
MRFI	≤ 0.2
QRPK	≤ 0.2

Variant	one-hybrid fitness for binding parS DNA
RFLG	0.891
IGAA	≤ 0.2
HPRF	≤ 0.2
PTGN	≤ 0.2
RRWQ	≤ 0.2
QAYW	≤ 0.2
KGPF	≤ 0.2
DGRH	≤ 0.2
QCKL	≤ 0.2
RNDN	0.226
QYVP	≤ 0.2
SNRW	≤ 0.2
EMVS	≤ 0.2
SQKS	≤ 0.2
DEPR	≤ 0.2
RYCD	≤ 0.2
IVQR	≤ 0.2
QCHQ	≤ 0.2
TCAN	≤ 0.2
FHNR	≤ 0.2
SSRN	≤ 0.2
RFRI	≤ 0.2
YPSI	≤ 0.2
DLLF	≤ 0.2
PVPV	≤ 0.2
NSPK	≤ 0.2

Variant	one-hybrid fitness for binding parS DNA
DHNW	≤ 0.2
QSRV	≤ 0.2
VLYF	≤ 0.2
THVD	≤ 0.2
TVHL	≤ 0.2
GVRP	≤ 0.2
RHEY	0.377
VFRY	≤ 0.2
EHHS	≤ 0.2
AHHG	≤ 0.2
ALVY	≤ 0.2
NNDM	≤ 0.2
AARF	≤ 0.2
KRVY	≤ 0.2
LRKR	≤ 0.2
LKKP	≤ 0.2
QEKW	≤ 0.2
AYSS	≤ 0.2
YWVR	≤ 0.2
RKND	≤ 0.2
YLKG	≤ 0.2
GYPH	≤ 0.2
CMGR	≤ 0.2
CAHE	≤ 0.2
ISVT	≤ 0.2
SYAN	≤ 0.2

Variant	one-hybrid fitness for binding parS DNA
LDRT	≤ 0.2
FMTQ	≤ 0.2
RSCT	0.809
QLQA	≤ 0.2
PTGL	≤ 0.2
HPTR	≤ 0.2
NGVS	≤ 0.2
QNRR	≤ 0.2
LYTV	≤ 0.2
YERV	≤ 0.2
QWWG	≤ 0.2
AITN	≤ 0.2
CAAT	≤ 0.2
TGMT	≤ 0.2
HRMR	≤ 0.2
EHNS	≤ 0.2
PQLA	≤ 0.2
QTTV	≤ 0.2
QKHS	≤ 0.2
AMVL	≤ 0.2
RSFM	0.292
NMFG	≤ 0.2
SVGT	≤ 0.2
RFWY	0.324
MIQR	≤ 0.2
WYFS	≤ 0.2

Variant	one-hybrid fitness for binding parS DNA
ACGW	0.256
SLVV	≤ 0.2
LKMY	≤ 0.2
QHIL	≤ 0.2
EPCY	≤ 0.2
QRMA	≤ 0.2
CHPT	≤ 0.2
RLKY	0.704
RMLP	≤ 0.2
RPKE	≤ 0.2
SRPN	≤ 0.2
WQDI	≤ 0.2
EVKD	≤ 0.2
TLTL	≤ 0.2
TSYV	≤ 0.2
YNHR	≤ 0.2
QRPE	≤ 0.2
CVES	≤ 0.2
GDTR	≤ 0.2
KNCV	≤ 0.2
QMGR	≤ 0.2
EQRR	≤ 0.2
TPSK	≤ 0.2
